# Source: patent publication US20100323950A1, “USE OF BETA-MELANOTROPIN AS A THERAPEUTIC AGENT, EG FOR THE TREATMENT OF AIDS OR ALZHEIMER” (priority 2007, published 2010)
# How the values were obtained:
# [1] = tested on: CEM-SS cells; assay: Cytotoxicity (MTS cell viability) in CEM-SS cells; conditions: CEM-SS cells plus peptide only, 10 micrograms per ml
# [2] = tested on: lymphocytotropic strain HIV-1IIIB; assay: HIV-1 antiviral assay (CPE reduction) in CEM-SS cells; assay type: cell-based; conditions: peptide 10 micrograms per ml, MOI approx. 0.01, 6 days post-infection, MTS
structure (smiles),measurement,setting,value
Cc1cn([C@H]2C[C@H](N=[N+]=[N-])[C@@H](CO)O2)c(=O)[nH]c1=O [AZT],% Cell viability,[1],97%
same,% CPE reduction in HIV-1 infected CEM-SS cells,[2],99%
